Measured values published in patent US20220411372A1, “SMALL-MOLECULE INHIBITORS FOR THE B-CATENIN/B-CELL LYMPHOMA 9 PROTEIN-PROTEIN INTERACTION” (H. Lee Moffitt Cancer Center and Research Institute, Inc., priority 2019, published 2022).

Columns and labels:
Assay type in all cases: cell-based, human
[1] = test system: FOPFlash reporter (three mutant Tcf binding sites); test: FOPFlash luciferase reporter assay; conditions: 25 μM; all three cell lines (HEK293, SW480, MDA-MB-468)
From the text: Inhibition of β-Catenin/BCL9/Tcf Transcriptional Activity. […] For the TOPFlash reporter construct, the firefly luciferase reporter gene was placed downstream of three wild-type Tcf binding sites. For the FOPFlash reporter construct, the firefly luciferase reporter gene was place downstream of three mutant Tcf binding sites. The high expression of firefly luciferase in TOPFlash assays was controlled by tandem Tcf binding sites. The renilla luciferase reporter construct (pCMV-RL) was used as the internal control to normalize luciferase reporter signals and eliminate systematic errors such as cell viability, transfection effect, etc.
Cell Transfection and Luciferase Assay. FuGENE6 (E269A, Promega) 96 well plate format was used for the transfection of HEK293 and SW480 cells according to the manufacturer's instruction. […] SW480 cells were co-transfected with 60 ng the TOPFlash or FOPFlash firefly luciferase reporter gene and 40 ng renilla luciferase pCMV-RL normalization reporter. Cells were cultured in DMEM and 10% FBS at 37° C. for 24 h, and different concentrations of inhibitors or DMSO was added. After 24 h, the luciferase reporter activity was measured using the Dual-Glo system (E2940, Promega). Normalized luciferase activity in response to the treatment with inhibitors was compared with that obtained from the cells treated with DMSO. Experiments were performed in triplicate.

TNBC MDA-MB-231 cells = test: Matrigel invasion assay; conditions: 20 μM, FIG. 3B
Description: Control, 0.2% DMSO in 10% FBS. Mitomycin (10 μg/mL) was added to inhibit cell proliferation and allow examination of the effects on cell migration. […] Each experiment was performed in duplicate.
Scratch wound healing and Matrigel invasion assays using TNBC MDA-MB-231 cells were conducted.

[2] = test system: Wnt/β-catenin target genes Axin2, cyclin D1 and LEF1; test: Quantitative real-time PCR of Wnt/β-catenin target genes; conditions: SW480 cells
Description: Inhibition of Expression of Wnt/β-Catenin Target Genes.
Quantitative Real Time PCR analysis. SW480 cells at 1×10^6/mL were treated with inhibitors at different concentrations for 24 h. […] The threshold cycle (CT) values were normalized to that of internal reference GAPDH. Experiments were performed in triplicate. The primer pairs are shown below

## CC(C)(Oc1cccc(N2CCC[C@@H](C(=O)N(Cc3ccc(-c4cn[nH]c4)cc3)C3CC3)C2)c1)C(=O)N1CCNCC1.Cl [Compound 37, (R)-4-(2-(3-(3-((4-(1H-pyrazol-4-yl)benzyl)(cyclopropyl)carbamoyl)piperidin-1-yl)phenoxy)-2-methylpropanoyl)piperazin-1-ium chloride]
[1]
  inhibitory activity in FOPFlash assay: did not show obvious inhibitory activity
TNBC MDA-MB-231 cells
  TNBC cell invasion: inhibited invasion
[2]; 20 μM, 24 h
  Axin2 transcripts, % of the DMSO-treated control: 36%
[2]; house-keeper gene HPRT not affected, FIG. 2A
  transcription of Wnt target genes (qPCR): dose-dependently inhibited transcription of all these Wnt target genes
